About 540 (0.36%) of roughly 150,000 compounds showed an effect of 50% or more. This is one part of the list.

One may read the % Inhibition as the change of the read-out against control, counted positive when it falls.

For the assay, the system named is Plasmodium falciparum. As to the kind of experiment: Primary screen in NF54 nanoGlo assay, in single point, at 2uM, 72h; a lower Z score goes with more inhibition. To be noted: timepoint 72 hour. Format: functional, Erythrocyte.
On to `O=C(NCCN1CCCC1)c1nc(Cc2ccccc2)n(-c2ccccc2)n1`, for which the “% Inhibition” value amounted to 0% and the Z score is -0.06.

On to `O=C(NCc1ccccc1F)N1C[C@H]2CC[C@@H](C1)[C@H]2O`, for which the “% Inhibition” value was -3% and the Z score is on record as 0.4.

As for `CCC(=O)N(CC(=O)N(Cc1ccc(F)cc1)Cc1ccc(C)s1)C(C)C`, the “% Inhibition” value is 11% and the Z score is listed as -1.34.

For the molecule `CN(C(=O)Nc1ccc(C2CCC2)cc1)[C@H]1C[C@@H](C(N)=O)C1`, the “% Inhibition” value is -5% and the Z score amounted to 0.62.

Consider `CCNC(=O)c1nc(Cn2cnc3ccccc3c2=O)no1`, for which the “% Inhibition” value is 8% and the Z score is listed as -1.08.

As for `CCOc1ncccc1-c1ccc(OC[C@H]2C[C@@H]2C(=O)O)cc1`, the “% Inhibition” value was 12% and the Z score was -1.53.

For the molecule `Cc1cccc(OCc2nc3ccccc3n2CC(=O)Nc2ccccc2)c1`, the “% Inhibition” value was found to be 4% and the Z score is reported as -0.65.

For the molecule `CCN(Cc1nc(N)nc(Nc2ccccc2C)n1)C[C@H]1COc2ccccc2O1`, the “% Inhibition” value is -8% and the Z score is recorded as 1.23.

Regarding `CC(C)c1cnc(N(C)CC(C)(C)CO)nc1`, the “% Inhibition” value is on record as -4% and the Z score is 0.78.

For the molecule `c1cnc(-c2noc(-c3cc4c(s3)CCOC4)n2)cn1`, the “% Inhibition” value was -3% and the Z score was found to be 0.37.

For `Cc1ccc(Nc2ccn3c(=O)n(CC(=O)Nc4cc(F)cc(F)c4)nc3n2)cc1`, the “% Inhibition” value is -16% and the Z score is 1.7.

`CC(C)(C)OC(=O)N1CCC(Cc2cc(C(=O)O)no2)CC1`: the “% Inhibition” value is reported as -5% and the Z score is given as 0.76.

As for `CC1CC(Nc2ccc3c(c2)OCCO3)CN1Cc1ccccc1` (stereo unspecified), the “% Inhibition” value is reported as -4% and the Z score was 0.81.

Take `CC(C)(CNC(=O)N1CCC[C@@](O)(C(F)(F)F)CC1)C1=CCCC1`: the “% Inhibition” value is on record as 0% and the Z score is 0.04.

`Cc1nnc(N2CC(C)OC(C)C2)c(C#N)c1C` (stereo unspecified): the “% Inhibition” value is listed as -1% and the Z score is 0.16.

As for `Cc1ccc(NC(=O)COc2ccc(N3C[C@@H](C(=O)NCc4ccccc4)CC3=O)cc2)cc1`, the “% Inhibition” value stood at 25% and the Z score was -2.84.

Regarding `Cc1noc(C)c1CCc1nc(CC(N)=O)n[nH]1`, the “% Inhibition” value amounted to 3% and the Z score is -0.64.

With `CCC(CC)CS(=O)(=O)NC(=O)CCc1ccco1`, the “% Inhibition” value is recorded as -12% and the Z score is reported as 1.54.

Turning to `NC(=O)[C@@H]1C[C@@H](F)CN1C(=O)COCc1ccccc1`, the “% Inhibition” value amounted to 6% and the Z score is on record as -0.76.

Regarding `CC(CC(=O)N1CCN(C(=O)C(N)C(C)C)CC1C)CC(C)(C)C` (stereo unspecified), the “% Inhibition” value is -8% and the Z score came out at 1.45.

For `CC(C)CCNC(=O)C1CN(C(=O)Cc2ccccc2)CC1c1cccc(F)c1` (stereo unspecified), the “% Inhibition” value is on record as -7% and the Z score is 1.24.

Consider `CC(C)[C@]1(C)NC(=O)N(Cc2nnc(C3CC3)n2C)C1=O`, for which the “% Inhibition” value was -5% and the Z score is 0.45.

`CC1CN(C(=O)c2cncc(F)c2)CC[S+]([O-])C1` (stereo unspecified): the “% Inhibition” value is given as -14% and the Z score is given as 1.56.

`O=C(Nc1ccc(Cl)cc1)c1c2c(nc3ccccc13)-c1ccccc1C2`: the “% Inhibition” value was found to be 2% and the Z score is listed as -0.31.

Turning to `CC(C)[C@H](C)N(C(=O)Cn1nnc2ccccc21)C1CC1`, the “% Inhibition” value was -9% and the Z score came to 1.39.

Consider `CC(C)=CCO[C@H]1COCC[C@@H]1NC(=O)c1cccc(N(C)C)c1`, for which the “% Inhibition” value is -12% and the Z score came to 1.16.

Turning to `C[C@H]1C(=O)N(c2ccc(Cl)cc2)CCN1C(=O)c1ccco1`, the “% Inhibition” value is -4% and the Z score is recorded as 0.53.

For `CCc1nnc2c(NC(=O)c3ccc(C)s3)cccn12`, the “% Inhibition” value is -9% and the Z score amounted to 1.31.

Regarding `COC[C@@H]1CN(c2ccncn2)C[C@H]1C(=O)NC(C)C`, the “% Inhibition” value was -6% and the Z score came out at 0.96.

On to `CC(C)Cc1ncc2c(n1)CN(c1nccc(N3CCC(O)CC3)n1)C2`, for which the “% Inhibition” value is -5% and the Z score is reported as 0.67.

Take `CCN(CC)CCNC(=O)COc1ccc2c(c1)OC1(CCCCC1)CC2=O`: the “% Inhibition” value is -14% and the Z score turned out to be 1.49.

With `Cc1ccc(OC[C@@H](O)CN2CCc3c(cccc3N3CCOC3=O)C2)c(C)c1`, the “% Inhibition” value is reported as -12% and the Z score turned out to be 1.43.

`COC1CC2C(=O)N(C3CCN(c4cccc(C)n4)CC3)C(=O)N2C1` (stereo unspecified): the “% Inhibition” value is listed as -9% and the Z score is 1.54.

Consider `CCc1nnc(-c2nnc(NCCCN3CCC(C)CC3)c3ccccc23)o1`, for which the “% Inhibition” value stood at 11% and the Z score is given as -1.27.

As for `O=C(O[C@H]1CCOC1)c1cccc(-c2noc(C3CC3)n2)c1`, the “% Inhibition” value was -2% and the Z score turned out to be 0.3.

Take `CNC(=O)NC(=O)[C@H](C)Nc1cccc(COC(C)C)c1`: the “% Inhibition” value is recorded as -8% and the Z score was 0.94.

As for `NC(=O)[C@@H]1CCCN1Cc1csnn1`, the “% Inhibition” value is listed as 26% and the Z score is given as -2.99.

As for `COc1ccc2c(c1)[C@]1(CC2)NC(=O)N(Cc2snnc2C)C1=O`, the “% Inhibition” value is given as 14% and the Z score is recorded as -1.62.

As for `Cc1nc(C2(NC(=O)Nc3nc(C4CC4)cs3)CCCCCC2)no1`, the “% Inhibition” value is -7% and the Z score is 1.32.

On to `Oc1cc(C(F)(F)F)c2cc3c(cc2n1)OCO3`, for which the “% Inhibition” value turned out to be 30% and the Z score is on record as -3.35.

As for `Cn1cc(C2CC2C(=O)N2CCN(C3CCCC3O)CC2)cn1` (stereo unspecified), the “% Inhibition” value was -4% and the Z score came to 0.37.

For the molecule `Cc1ccccc1[C@@]1(CC(=O)N(CCO)C(C)C)CC(=O)N(Cc2cccnc2)C1=O`, the “% Inhibition” value was -4% and the Z score is reported as 0.45.

`CNC(=O)c1ccc(NC(=O)N2CCC3(CCCCC3)CC2)c(OC)c1`: the “% Inhibition” value is recorded as 4% and the Z score is reported as -0.62.

For the origin of these results see ChEMBL document CHEMBL4888484, “Replenishing the malaria drug discovery pipeline: Screening and hit evaluation of the MMV Hit Generation Library 1 (HGL1) against asexual blood stage Plasmodium falciparum ,using a nano luciferase reporter read-out” (2022).
